Starred links: 1 amine or outer side, 2 acyl side, 3 side chain; linkers in the order of their positions; H or OH if unused. Non-standard residues stand in square brackets, D forms with d. Residues, ends and D or L forms follow the SMILES beside them. *: point of attachment. X11 = CC(C)(C)OC(=O)N1CCN([*:1])C(C(=O)[*:2])C1; X4 = O=C([C@@H]1C[C@@H](CN[*:3])CN1[*:1])[*:2]; Benzoyl(3-OPh) = O=C(c1cccc(Oc2ccccc2)c1)*; X1 = CCC[C@H](N[*:1])C(=O)C(=O)[*:2]; X13 = O=C(C(=O)[*:2])C1(N[*:1])CCCC1; X3 = CCCC(N[*:1])C(=O)C(=O)[*:2]; hSer = N[C@@H](CCO)C(=O)O; NH(propargyl) = C#CCN*; OtBu = CC(C)(C)O*; NHAllyl = C=CCN*; NHiPr = CC(C)N*; X18 = C=CCN(C)*; OAll = C=CCO*; NHPr = CCCN*
Target: Recombinant heterodimeric HCV NS3/NS4A protease (strain 1a) (Hepatitis C virus genotype 1a, UniProt P27958)
Assay: biochemical
Conditions: Ki* Range

SMILES	Ki
CCC[C@H](NC(=O)[C@@H]1CCCN1C(=O)[C@@H](NC(=O)[C@@H](NC(=O)[C@H](CCC(=O)O)NC(=O)[C@H](CCC(=O)O)NC(C)=O)C(C)C)C(C)C)C(=O)C(=O)NC(C)C [Ac-EEVVP-nV-(CO)-iPrAm] (Ac-EEVVP[X1]-NHiPr)	1000 to 10000 nM
CCCC(NC(=O)[C@@H]1CCCN1C(=O)[C@@H](NC(=O)[C@H](CCO)NC(=O)[C@H](CCC(=O)O)NC(=O)[C@H](CCC(=O)O)NC(C)=O)C(C)C)C(=O)C(=O)NCC(=O)O (stereo partly shown) [Ac-EEhSVP-nV-(CO)-G-OH] (Ac-EE[hSer]VP[X3]G-OH)	1000 to 10000 nM
CCC[C@H](NC(=O)[C@@H]1CCCN1C(=O)[C@@H](NC(=O)[C@@H](NC(=O)[C@@H](CCC(=O)O)NC(=O)[C@H](CCC(=O)O)NC(C)=O)C(C)C)C(C)C)C(=O)C(=O)NCC(=O)O [Ac-EdEVVP-nV-(CO)-G-OH] (Ac-E[dE]VVP[X1]G-OH)	1 to 100 nM
CCC[C@H](NC(=O)CN(CCCC(N)C(=O)O)C(=O)[C@@H](NC(=O)[C@@H](NC(=O)[C@H](CCC(=O)O)NC(=O)[C@H](CCC(=O)O)NC(C)=O)C(C)C)C(C)C)C(=O)C(=O)NCC(=O)O (stereo partly drawn) [Ac-Glu-Glu-Val-Val-Gly(N-Bu(4NH2,4-COOH)-nVal(CO)-Gly-OH]	1 to 100 nM
CCC[C@H](NC(=O)[C@@H]1C[C@@H](CNC(=O)c2cccc(Oc3ccccc3)c2)CN1C(=O)[C@@H](NC(=O)[C@@H](NC(=O)[C@H](CCC(=O)O)NC(=O)[C@H](CCC(=O)O)NC(C)=O)C(C)C)C(C)C)C(=O)C(=O)NCC(=O)O [Ac-Glu-Glu-Val-Val-Pro(4t-MeNHBzl(3-OPh))-nVal-(CO)-Gly-OH] (Ac-EEVV[X4](Benzoyl(3-OPh))[X1]G-OH)	1 to 100 nM
C=CCOC(=O)CNC(=O)C(=O)[C@H](CCC)NC(=O)[C@@H]1CCCN1C(=O)[C@@H](NC(=O)[C@@H](NC(=O)[C@H](CCC(=O)O)NC(=O)[C@H](CCC(=O)O)NC(C)=O)C(C)C)C(C)C [Compound 2] (Ac-EEVVP[X1]G-OAll)	101 to 999 nM
C=CCOC(=O)CNC(=O)C(=O)C1(NC(=O)[C@@H]2CCCN2C(=O)[C@@H](NC(=O)[C@@H](NC(=O)[C@H](CCC(=O)O)NC(=O)[C@H](CCC(=O)O)NC(C)=O)C(C)C)C(C)C)CCCC1 [Compound 3] (Ac-EEVVP[X13]G-OAll)	1000 to 10000 nM
C=CCNC(=O)C(=O)C(CCC)NC(=O)[C@@H]1CCCN1C(=O)[C@@H](NC(=O)[C@@H](NC(=O)[C@H](CCC(=O)O)NC(=O)[C@H](CCC(=O)O)NC(C)=O)C(C)C)C(C)C (stereo partly shown) [Compound 4] (Ac-EEVVP[X3]-NHAllyl)	101 to 999 nM
C=CCNC(=O)C(=O)C(CCC)NC(=O)[C@@H]1CCCN1C(=O)[C@@H](NC(=O)[C@@H](NC(=O)[C@H](CCC(=O)OC(C)(C)C)NC(=O)[C@H](CCC(=O)OC(C)(C)C)NC(C)=O)C(C)C)C(C)C (stereo partly shown) [Compound 5] (Ac-E(OtBu)E(OtBu)VVP[X3]-NHAllyl)	101 to 999 nM
C=CCNC(=O)CNC(=O)C(=O)[C@H](CCC)NC(=O)[C@@H]1CCCN1C(=O)[C@@H](NC(=O)[C@@H](NC(=O)[C@H](CCC(=O)O)NC(=O)[C@H](CCC(=O)O)NC(C)=O)C(C)C)C(C)C [Compound 6] (Ac-EEVVP[X1]G-NHAllyl)	1000 to 10000 nM
C=CCNC(=O)CNC(=O)C(=O)[C@H](CCC)NC(=O)[C@@H]1CCCN1C(=O)[C@@H](NC(=O)[C@@H](NC(=O)[C@H](CCC(=O)OC(C)(C)C)NC(=O)[C@H](CCC(=O)OC(C)(C)C)NC(C)=O)C(C)C)C(C)C [Compound 7] (Ac-E(OtBu)E(OtBu)VVP[X1]G-NHAllyl)	1000 to 10000 nM
CCCNC(=O)C(=O)[C@H](CCC)NC(=O)[C@@H]1CCCN1C(=O)[C@@H](NC(=O)[C@@H](NC(=O)[C@H](CCC(=O)O)NC(=O)[C@H](CCC(=O)O)NC(C)=O)C(C)C)C(C)C [Compound 8] (Ac-EEVVP[X1]-NHPr)	101 to 999 nM
CCCNC(=O)C(=O)C(CCC)NC(=O)[C@@H]1CCCN1C(=O)[C@@H](NC(=O)[C@@H](NC(=O)[C@H](CCC(=O)OC(C)(C)C)NC(=O)[C@H](CCC(=O)OC(C)(C)C)NC(C)=O)C(C)C)C(C)C (stereo partly shown) [Compound 9] (Ac-E(OtBu)E(OtBu)VVP[X3]-NHPr)	101 to 999 nM
C=CCN(C)C(=O)C(=O)C(CCC)NC(=O)[C@@H]1CCCN1C(=O)[C@@H](NC(=O)[C@@H](NC(=O)[C@H](CCC(=O)O)NC(=O)[C@H](CCC(=O)O)NC(C)=O)C(C)C)C(C)C (stereo partly shown) [Compound 10] (Ac-EEVVP[X3]-X18)	1000 to 10000 nM
C=CCOC(=O)CNC(=O)C(=O)C(CCC)NC(=O)C1CN(C(=O)OC(C)(C)C)CCN1C(=O)[C@@H](NC(=O)[C@@H](NC(=O)[C@H](CCC(=O)OC(C)(C)C)NC(=O)[C@H](CCC(=O)OC(C)(C)C)NC(C)=O)C(C)C)C(C)C (stereo partly shown) [Compound 11] (Ac-E(OtBu)E(OtBu)VV[X11][X3]G-OAll)	1000 to 10000 nM
C#CCNC(=O)C(=O)[C@H](CCC)NC(=O)[C@@H]1CCCN1C(=O)[C@@H](NC(=O)[C@@H](NC(=O)[C@H](CCC(=O)O)NC(=O)[C@H](CCC(=O)O)NC(C)=O)C(C)C)C(C)C [Compound 12] (Ac-EEVVP[X1]-{NH(propargyl)})	101 to 999 nM
